Our source for the binding signal values is paper PMC9911399, “Two distinct binding modes provide the RNA-binding protein RbFox with extraordinary sequence specificity”.

T1: RBFOX1 RRM RbFoxmut (Fox-RRM*) (Homo sapiens, UniProt Q9NWB1 109-208, R118D;E147R;N151S;E152T)
T1 sequence: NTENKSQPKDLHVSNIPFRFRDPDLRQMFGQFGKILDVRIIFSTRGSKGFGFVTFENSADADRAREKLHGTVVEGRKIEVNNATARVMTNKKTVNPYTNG

B1: UAUUUCG (DNA:RNA)
RNA: GGGAGACCGGAAUUCAGAUUGUCCUAUUUCGUUAAAUCCCGUCGUAGCCACCA
DNA 1: CAATCTGAATTCCGGTCTCCC
DNA 2: TGGTGGCTACGACGGGATT
B2: GAUCGCA (DNA:RNA)
RNA: B1 RNA with U25G, U28C, U29G, G31A
DNA 1: CAATCTGAATTCCGGTCTCCC
DNA 2: TGGTGGCTACGACGGGATT
B3: GAAGGCC (DNA:RNA)
RNA: B1 RNA with U25G, U27A, U28G, U29G, G31C
DNA 1: CAATCTGAATTCCGGTCTCCC
DNA 2: TGGTGGCTACGACGGGATT
B4: AUAUCAU (DNA:RNA)
RNA: B1 RNA with U25A, A26U, U27A, U29C, C30A, G31U
DNA 1: CAATCTGAATTCCGGTCTCCC
DNA 2: TGGTGGCTACGACGGGATT
B5: GCACCGA (DNA:RNA)
RNA: GGGAGACCGGAAUUCAGAUUGUCCGCACCGAUUAAAUCCCGUCGUAGCCACCA
DNA 1: CAATCTGAATTCCGGTCTCCC
DNA 2: TGGTGGCTACGACGGGATT
B6: ACCCCUG (DNA:RNA)
RNA: B5 RNA with G25A, A27C, G30U, A31G
DNA 1: CAATCTGAATTCCGGTCTCCC
DNA 2: TGGTGGCTACGACGGGATT
B7: ACUACGA (DNA:RNA)
RNA: B5 RNA with G25A, A27U, C28A
DNA 1: CAATCTGAATTCCGGTCTCCC
DNA 2: TGGTGGCTACGACGGGATT
B8: CGACUGG (DNA:RNA)
RNA: B5 RNA with G25C, C26G, C29U, A31G
DNA 1: CAATCTGAATTCCGGTCTCCC
DNA 2: TGGTGGCTACGACGGGATT
B9: UUCGACU (DNA:RNA)
RNA: B1 RNA with A26U, U27C, U28G, U29A, G31U
DNA 1: CAATCTGAATTCCGGTCTCCC
DNA 2: TGGTGGCTACGACGGGATT
B10: GGGAUAC (DNA:RNA)
RNA: B5 RNA with C26G, A27G, C28A, C29U, G30A, A31C
DNA 1: CAATCTGAATTCCGGTCTCCC
DNA 2: TGGTGGCTACGACGGGATT
B11: CUCGCGA (DNA:RNA)
RNA: B5 RNA with G25C, C26U, A27C, C28G
DNA 1: CAATCTGAATTCCGGTCTCCC
DNA 2: TGGTGGCTACGACGGGATT
B12: AUGCGAC (DNA:RNA)
RNA: B5 RNA with G25A, C26U, A27G, C29G, G30A, A31C
DNA 1: CAATCTGAATTCCGGTCTCCC
DNA 2: TGGTGGCTACGACGGGATT
B13: CGCCCUC (DNA:RNA)
RNA: B5 RNA with G25C, C26G, A27C, G30U, A31C
DNA 1: CAATCTGAATTCCGGTCTCCC
DNA 2: TGGTGGCTACGACGGGATT
B14: UUACGAU (DNA:RNA)
RNA: B5 RNA with G25U, C26U, C29G, G30A, A31U
DNA 1: CAATCTGAATTCCGGTCTCCC
DNA 2: TGGTGGCTACGACGGGATT
B15: AUGGUGA (DNA:RNA)
RNA: B5 RNA with G25A, C26U, A27G, C28G, C29U
DNA 1: CAATCTGAATTCCGGTCTCCC
DNA 2: TGGTGGCTACGACGGGATT
B16: CGUGCCU (DNA:RNA)
RNA: B1 RNA with U25C, A26G, U28G, U29C, G31U
DNA 1: CAATCTGAATTCCGGTCTCCC
DNA 2: TGGTGGCTACGACGGGATT
B17: UUAAACU (DNA:RNA)
RNA: B1 RNA with A26U, U27A, U28A, U29A, G31U
DNA 1: CAATCTGAATTCCGGTCTCCC
DNA 2: TGGTGGCTACGACGGGATT
B18: GCGUUGA (DNA:RNA)
RNA: B5 RNA with A27G, C28U, C29U
DNA 1: CAATCTGAATTCCGGTCTCCC
DNA 2: TGGTGGCTACGACGGGATT
B19: GUCCUUG (DNA:RNA)
RNA: B5 RNA with C26U, A27C, C29U, G30U, A31G
DNA 1: CAATCTGAATTCCGGTCTCCC
DNA 2: TGGTGGCTACGACGGGATT
B20: GGGGCCC (DNA:RNA)
RNA: B5 RNA with C26G, A27G, C28G, G30C, A31C
DNA 1: CAATCTGAATTCCGGTCTCCC
DNA 2: TGGTGGCTACGACGGGATT
B21: CGCGGCC (DNA:RNA)
RNA: B1 RNA with U25C, A26G, U27C, U28G, U29G, G31C
DNA 1: CAATCTGAATTCCGGTCTCCC
DNA 2: TGGTGGCTACGACGGGATT
B22: GCACCUU (DNA:RNA)
RNA: B5 RNA with G30U, A31U
DNA 1: CAATCTGAATTCCGGTCTCCC
DNA 2: TGGTGGCTACGACGGGATT
B23: AGGACGU (DNA:RNA)
RNA: B5 RNA with G25A, C26G, A27G, C28A, A31U
DNA 1: CAATCTGAATTCCGGTCTCCC
DNA 2: TGGTGGCTACGACGGGATT
B24: GUAAAGG (DNA:RNA)
RNA: B5 RNA with C26U, C28A, C29A, A31G
DNA 1: CAATCTGAATTCCGGTCTCCC
DNA 2: TGGTGGCTACGACGGGATT
B25: CGCCCCG (DNA:RNA)
RNA: B5 RNA with G25C, C26G, A27C, G30C, A31G
DNA 1: CAATCTGAATTCCGGTCTCCC
DNA 2: TGGTGGCTACGACGGGATT
B26: UAGACAC (DNA:RNA)
RNA: B1 RNA with U27G, U28A, U29C, C30A, G31C
DNA 1: CAATCTGAATTCCGGTCTCCC
DNA 2: TGGTGGCTACGACGGGATT
B27: GAAACCG (DNA:RNA)
RNA: B5 RNA with C26A, C28A, G30C, A31G
DNA 1: CAATCTGAATTCCGGTCTCCC
DNA 2: TGGTGGCTACGACGGGATT
B28: AAGCGUC (DNA:RNA)
RNA: B5 RNA with G25A, C26A, A27G, C29G, G30U, A31C
DNA 1: CAATCTGAATTCCGGTCTCCC
DNA 2: TGGTGGCTACGACGGGATT
B29: CCGAGAC (DNA:RNA)
RNA: B5 RNA with G25C, A27G, C28A, C29G, G30A, A31C
DNA 1: CAATCTGAATTCCGGTCTCCC
DNA 2: TGGTGGCTACGACGGGATT
B30: CGGUUAG (DNA:RNA)
RNA: B1 RNA with U25C, A26G, U27G, C30A
DNA 1: CAATCTGAATTCCGGTCTCCC
DNA 2: TGGTGGCTACGACGGGATT
B31: UAAAUUU (DNA:RNA)
RNA: B1 RNA with U27A, U28A, C30U, G31U
DNA 1: CAATCTGAATTCCGGTCTCCC
DNA 2: TGGTGGCTACGACGGGATT

Numbering of substitutions follows the chain as printed; changes in the protein carry UniProt numbers. This is one part of the list.

The target of this experiment is T1, RBFOX1 RRM RbFoxmut (Fox-RRM*). The experiment can be described thus: EMSA; HiTS-Eq, 1 nM pool, 10 min; buffer printed only for the single-RNA assays: 10 mM Tris pH 7.5, 150 mM NaCl, 3.4 mM EDTA, 0.001% NP-40, 30 C. As to conditions: tags: His6 N-terminal (pET28a); label: 5' 32P. Put shortly:
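Purified wild-type or mutant RbFox RRM at increasing concentrations was equilibrated with 1 nM of 5′-radiolabelled RNA carrying 7 randomized nucleotides for 10 min in 50 µL. Unbound RNA was separated by 8% native PAGE and sequenced. Relative association constants came from read-count changes of each RNA species compared with the control reaction, normalised to the cognate motif.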
A general note: Mobility shift assays separate free from complexed probe on a gel.
Turning to B1, the binding signal is 0.115 KA relative to UGCAUGU.

For B2, the binding signal was 0.131 KA relative to UGCAUGU.

Regarding B3, the binding signal is 0.0919 KA relative to UGCAUGU.

As for B4, the binding signal was 0.12 KA relative to UGCAUGU.

For the molecule B5, the binding signal is 0.173 KA relative to UGCAUGU.

Take B6: the binding signal was 0.0845 KA relative to UGCAUGU.

As to B7, the binding signal was 0.0683 KA relative to UGCAUGU.

B8: the binding signal was 0.206 KA relative to UGCAUGU.

For the molecule B9, the binding signal was 0.0754 KA relative to UGCAUGU.

With B10, the binding signal was 0.103 KA relative to UGCAUGU.

B11: the binding signal was 0.0813 KA relative to UGCAUGU.

On to B12, for which the binding signal was 0.0727 KA relative to UGCAUGU.

Regarding B13, the binding signal was 0.0492 KA relative to UGCAUGU.

In the case of B14, the binding signal is 0.0651 KA relative to UGCAUGU.

For the molecule B15, the binding signal is 0.126 KA relative to UGCAUGU.

Turning to B16, the binding signal is 0.11 KA relative to UGCAUGU.

As for B17, the binding signal was 0.0636 KA relative to UGCAUGU.

Regarding B18, the binding signal is 0.108 KA relative to UGCAUGU.

In the case of B19, the binding signal was 0.116 KA relative to UGCAUGU.

In the case of B20, the binding signal was 0.0909 KA relative to UGCAUGU.

As for B21, the binding signal is 0.328 KA relative to UGCAUGU.

Consider B22, for which the binding signal was 0.106 KA relative to UGCAUGU.

As to B23, the binding signal was 0.101 KA relative to UGCAUGU.

On to B24, for which the binding signal is 0.0554 KA relative to UGCAUGU.

For the molecule B25, the binding signal was 0.077 KA relative to UGCAUGU.

As to B26, the binding signal was 0.0515 KA relative to UGCAUGU.

With B27, the binding signal is 0.0569 KA relative to UGCAUGU.

B28: the binding signal is 0.0855 KA relative to UGCAUGU.

Turning to B29, the binding signal is 0.0883 KA relative to UGCAUGU.

Consider B30, for which the binding signal is 0.111 KA relative to UGCAUGU.

B31: the binding signal was 0.0739 KA relative to UGCAUGU.
